{
  "source": "PubChem BioAssay AID1460",
  "about": "(National Center for Advancing Translational Sciences (NCATS), 2008)",
  "note": "Screen size: about 270,000 compounds; about 5,800 (2.1%) were called active. The inconclusive results got no clear call from the source; some entries with a clear call stand among them for comparison. The call rests on the fitted dose curve; in most records, active means well fitted inhibition curve with a large enough effect; inconclusive means small, poorly fitted or top-dose-only effect; inactive means flat fitted curve, though single readings scatter. Potencies beside an inconclusive call are fits to weak or partial responses and may not hold up. Potency means the concentration at half of the fitted maximal effect; tags describe the fitted curve by direction and shape.",
  "data": [
    {"target": "Microtubule-associated protein tau (Homo sapiens) (UniProt P10636)", "sequence (P10636 whole entry, looked up)": "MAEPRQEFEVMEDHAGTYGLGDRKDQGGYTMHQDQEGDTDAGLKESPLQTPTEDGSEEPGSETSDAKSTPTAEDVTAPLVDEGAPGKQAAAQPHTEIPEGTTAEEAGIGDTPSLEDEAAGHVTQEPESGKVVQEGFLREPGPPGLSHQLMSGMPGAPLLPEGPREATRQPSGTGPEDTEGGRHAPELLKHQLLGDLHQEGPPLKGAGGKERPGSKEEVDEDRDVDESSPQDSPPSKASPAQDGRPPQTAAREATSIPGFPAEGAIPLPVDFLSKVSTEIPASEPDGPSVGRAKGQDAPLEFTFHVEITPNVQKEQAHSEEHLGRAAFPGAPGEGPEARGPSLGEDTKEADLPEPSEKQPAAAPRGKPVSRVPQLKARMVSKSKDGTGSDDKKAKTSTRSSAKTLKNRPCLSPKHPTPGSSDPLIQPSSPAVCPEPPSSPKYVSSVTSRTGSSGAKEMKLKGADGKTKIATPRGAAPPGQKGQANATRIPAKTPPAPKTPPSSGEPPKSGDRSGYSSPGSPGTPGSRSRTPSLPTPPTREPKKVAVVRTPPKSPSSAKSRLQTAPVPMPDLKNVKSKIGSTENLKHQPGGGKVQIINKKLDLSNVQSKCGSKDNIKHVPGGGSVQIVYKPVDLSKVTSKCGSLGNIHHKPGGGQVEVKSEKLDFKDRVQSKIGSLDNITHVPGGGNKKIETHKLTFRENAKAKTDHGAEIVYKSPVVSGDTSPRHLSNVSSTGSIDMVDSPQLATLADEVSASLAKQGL", "experiment": "qHTS for Inhibitors of Tau Fibril Formation, Thioflavin T Binding; further: nearly all actives have a fitted effect of over 55% in size", "details": "recombinant tau K18 P301L, heparin-induced fibrillization, ThT fluorescence; series mostly up to 57.4 µM", "method_in_brief": "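ThT emission at 510 nm, taken 1 hr after adding 30 uM dye, quantifies aggregates formed when 20 uM heparin acts on human tau K18 P301L for 6 hr at 37 C.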", "values": [
      {"compound": "CCOC(=O)c1cc(NC(=O)c2ccc(OC)cc2)c(=O)n2c1oc1ccc(Cl)cc12", "Potency": "inconclusive: 22.4 µM [inhibitor, partial curve, poor fit]"},
      {"compound": "C/C(=N\\Nc1nc(-c2cc(C)ccc2C)cs1)c1cc2ccccc2oc1=O", "Potency": "inconclusive: 8.91 µM [inhibitor, partial curve]"},
      {"compound": "Cc1ccc(S(=O)(=O)Oc2ccc(/C=C3/N=C(c4ccccc4)OC3=O)cc2)cc1", "Potency": "inactive"},
      {"compound": "CCn1c(SC)nnc1-c1sc2cc(Cl)ccc2c1Cl", "Potency": "inconclusive: 17.8 µM [inhibitor, single point]"},
      {"compound": "COc1ccc(-c2noc(CCC(=O)N3CCN(c4cccc(C(F)(F)F)c4)CC3)n2)cc1", "Potency": "inconclusive: 6.31 µM [inhibitor, full curve]"},
      {"compound": "COc1cccc(OC)c1OCc1cc(C2C3CCCC=C3C(C#N)=C(N)C2(C#N)C#N)c(C)cc1C", "note": "(configuration not stated)", "Potency": "inconclusive: 25.1 µM [inhibitor, partial curve]"},
      {"compound": "COc1ccc(C(=O)c2c[nH]c(C(=O)NCC3CCCO3)c2)cc1", "note": "(configuration not stated)", "Potency": "inactive"},
      {"compound": "COc1ccc(C(C)=O)cc1COc1ccc(Cl)c(C)c1", "Potency": "inconclusive: 39.8 µM [inhibitor, single point]"},
      {"compound": "O=C(Nc1ccc(S(=O)(=O)N2CCC(C(=O)NC3CCCCC3)CC2)cc1)c1ccco1", "Potency": "inactive"},
      {"compound": "C=CCSc1nnc2c(n1)OC(c1c(C)[nH]n(-c3ccccc3)c1=O)Nc1ccccc1-2", "note": "(configuration not stated)", "Potency": "inconclusive: 20 µM [inhibitor, single point]"},
      {"compound": "COc1ccc(-c2cc(C(F)(F)F)nc(NC3CCCC3)n2)cc1OC", "Potency": "inconclusive: 44.7 µM [inhibitor, partial curve]"},
      {"compound": "CCC1=Nc2ccccc2NC2=C1C(=O)CCC2", "Potency": "active: 25.1 µM"},
      {"compound": "O=C(OCc1nc2ccccc2s1)C1CCN(C2=NS(=O)(=O)c3ccccc32)CC1", "Potency": "inconclusive: 15.8 µM [inhibitor, partial curve]"},
      {"compound": "CNC(=O)CN1C(=O)c2cccc3cccc1c23", "Potency": "inactive"},
      {"compound": "Nc1cc(OCC(F)(F)F)cc(OCC(F)(F)F)c1", "Potency": "inconclusive: 25.1 µM [inhibitor, single point]"},
      {"compound": "O=[N+]([O-])c1ccc(-c2ccc(/C=N/Nc3nc(N4CCCC4)nc(N4CCCC4)n3)o2)cc1", "Potency": "inconclusive: 5.01 µM [inhibitor, partial curve]"},
      {"compound": "Cc1ccc(C)c(NC(=O)CSc2ccc(-c3ccco3)nn2)c1", "Potency": "inconclusive: 14.1 µM [inhibitor, single point]"},
      {"compound": "O=C(NCCC1=CCCCC1)c1ccc2c(c1)N(Cc1ccc(Cl)cc1)C(=O)c1ccccc1S2=O", "note": "(configuration not stated)", "Potency": "inconclusive: 5.01 µM [activator, single point]"},
      {"compound": "CC1=C(c2ccc(C)c(C)c2)S(=O)(=O)N=C1N1CCC(C(=O)NCc2ccc(Cl)cc2)CC1", "Potency": "inconclusive: 2.51 µM [inhibitor, full curve]"},
      {"compound": "Cc1ccccc1CSc1cn(CC(=O)N2CCCC2)c2ccccc12", "Potency": "inconclusive: 17.8 µM [inhibitor, partial curve]"},
      {"compound": "COc1ccc(NS(=O)(=O)c2cc(NC(=O)/C=C/c3cccs3)ccc2N2CCOCC2)cc1", "Potency": "inactive"},
      {"compound": "CCN(Cc1ccccc1)C(=O)Cn1c(=O)oc2cc(S(=O)(=O)N3CCCCCC3)ccc21", "Potency": "inactive"},
      {"compound": "COC(=O)CCC(=O)OC1(C)C(=O)C=C2C=C(C3CC3)N(c3ccccc3)C=C2C1=O", "note": "(configuration not stated)", "Potency": "inconclusive: 3.55 µM [inhibitor, single point]"},
      {"compound": "CC(C)(C)c1ccc(C(=O)CC(Sc2ccc(Cl)cc2)C(=O)O)cc1", "note": "(configuration not stated)", "Potency": "inconclusive: 14.1 µM [inhibitor, partial curve]"},
      {"compound": "Cc1ccc(C)c(N2CCN(C(c3ccc(F)cc3)c3nnc(-c4ccccc4)o3)CC2)c1", "note": "(configuration not stated)", "Potency": "inactive"},
      {"compound": "COc1ccc(OC)c(NC(=O)c2sc3nc4c(cc3c2N)CCCCCC4)c1", "Potency": "inconclusive: 15.8 µM [inhibitor, partial curve]"},
      {"compound": "Nc1cc(C(=O)O)c(N)c2c1C(=O)c1ccccc1C2=O", "Potency": "active: 4.47 µM"},
      {"compound": "Cc1cc(NC(=O)c2cc3ccccc3o2)cc(C)c1OCC(=O)N1CCOCC1", "Potency": "inactive"},
      {"compound": "CCOC(=O)c1ccccc1NC(=O)c1ccc2nccnc2c1", "Potency": "inconclusive: 11.2 µM [inhibitor, partial curve]"},
      {"compound": "COc1ccc(NC(=O)c2sc3nc(C)c(C(=O)Nc4ccc(C)cc4C)c(-c4cccs4)c3c2N)cc1", "Potency": "inconclusive: 15.8 µM [inhibitor, partial curve, poor fit]"},
      {"compound": "CC1(C)c2ccccc2N2CC(=O)N(CC(N)=O)C21C", "note": "(configuration not stated)", "Potency": "inconclusive: 11.2 µM [inhibitor, partial curve]"},
      {"compound": "Clc1ccc(-c2nc3ccccn3c2Nc2ccc3c(c2)OCCO3)s1", "Potency": "inconclusive: 2.82 µM [inhibitor, full curve]"},
      {"compound": "CC(=O)Nc1cccc(/C(C)=N/Nc2nc3ccccc3s2)c1", "Potency": "inconclusive: 11.2 µM [inhibitor, partial curve, poor fit]"},
      {"compound": "CCN(CC)CCOc1ccc2c(c1)C(=NNC(=O)c1ccccn1)c1cc(OCCN(CC)CC)ccc1-2", "Potency": "inconclusive: 6.31 µM [inhibitor, partial curve]"},
      {"compound": "O=C1/C(=C/c2ccccc2)CCC1C1CCCC1", "note": "(configuration not stated)", "Potency": "inconclusive: 5.01 µM [inhibitor, partial curve, poor fit]"},
      {"compound": "CCOC(=O)N/N=C\\C=C\\c1ccco1", "Potency": "inconclusive: 15.8 µM [inhibitor, partial curve]"},
      {"compound": "Cc1cccc(OCc2nnc(SCC(=O)Nc3cc(C)on3)n2C)c1", "Potency": "inconclusive: 5.62 µM [inhibitor, single point]"},
      {"compound": "Cc1ccccc1NC(=O)CC1SC(=O)N(c2ccccc2)C1=O", "note": "(configuration not stated)", "Potency": "inconclusive: 25.1 µM [inhibitor, partial curve]"},
      {"compound": "CCN(CC)c1ccc(S(=O)(=O)Nc2cc(Cl)ccc2Cl)cc1NC(=S)NC(=O)C1CCCC1", "Potency": "inactive"},
      {"compound": "Cc1cccc(-c2nc(CS(=O)CC(=O)NCCCSC3CCCCC3)c(C)o2)c1", "note": "(configuration not stated)", "Potency": "inconclusive: 25.1 µM [inhibitor, partial curve]"},
      {"compound": "COc1cc(NC(=O)c2cc(-c3cccc(Cl)c3)on2)c(OC)cc1Cl", "Potency": "inactive"},
      {"compound": "Cc1ccc2nc(NC(=O)CSc3nccn3Cc3ccccc3)sc2c1", "Potency": "inactive"}
    ]}
  ]
}
